Reference: patent US20140329275A1, “BIOCATALYSIS CELLS AND METHODS” (REGENTS OF THE UNIVERSITY OF MINNESOTA, priority 2011, published 2014)

Legend:
[1] = test system: CC(C)C(=O)C(=O)O; experiment: purified protein, by the assay type; settings: other: pH 6.8, coupled with PadA, 25 nM IPDC, 30.0 °C
[2] = test system: CC(C)CC(=O)C(=O)O; experiment: purified protein, by the assay type; settings: other: pH 6.8, coupled with PadA, 25 nM IPDC, 30.0 °C

Substance: IPDC (Salmonella enterica subsp. enterica serovar Typhimurium str. LT2)
- Km [1]: 1528 µM
- kcat [1]: 7.9 s⁻¹
- Km [2]: 216 µM
- kcat [2]: 4.9 s⁻¹
